These results are taken from the RNAGym collection of RNA variant scans (doi:10.7554/elife.90254).

The source gives no read counts; variants with many changes may rest on few reads.

First the molecules themselves.
B1: OR4K15 (parent)
chain: GUUAACGGUCAUAGGCCAUGGAAACUAGGAGCACCAUUUCGCUGCCAGUGAAGAAAUGAACAAAGAAAAUCUGGGCCAGGCAGGCAUCAAAAGAAAUAGUCUUGCGCUCAACCAGAAAGUCUGUAAUCAUUUUAAGGGUA

This data set covers variants of B1. Briefly: self-cleavage, relative activity (ratio to wild type); higher = more cleavage; in vitro, sequencing; the parent is a self-cleaving ribozyme.
For the variant GUUAACGGUCAUAGGCCAUGGAAACUAGGAGCACCAUCUCGCUGCCAGUGAAGAAAUGAACAAAGUAAAUCUGGGCCAGGCAGGCAUCAAAGGAAAUAGUCUUGCGCUCAACCAGAAAGUCUGUGAUCAUUUUAAGGGUG [U38C A66U A92G A125G A140G], the self-cleavage is 0.99.

GUUAACGGUCAUAGGCCAUGGAAACUAGGAGCACCAUCUCGCUGCCAGUGAAGAAAUGAACAAAGGAAAUCUGGGCCAGGCAGGCAUCAAAAGAAAUAGUCUUGCGCUCAACCAGUAAGUCUGUAAUCAUUUUAGGGGUA [U38C A66G A116U A135G]: the self-cleavage stood at 0.38.

In the case of GUUAACGGUCAUAGGCCAUGGAAACUAGGAGCACCAUCUCGCUGCCAGUGAAGAAAUGAACAAAGAGAAUCUGGGCCAGGCAGGCAUCAAAAGAAAUAGUCUUGCGCUCAACCAGAAAGUCUGUAGUCAUUUUAAGGGUA [U38C A67G A126G], the self-cleavage worked out at 2.2.

Consider GUUAACGGUCAUAGGCCAUGGAAACUAGGAGCACCAUCUCGCUGCCAGUGAAGAAAUGAACAAAGACAAUCUGGGCCAGGCUGGCAUCAAAAGAAAUAGUCUUGCGCUCGACCAGAAAGUCUGUAAUCAUUUUAAGGGUA [U38C A67C A82U A110G], for which the self-cleavage is 0.02.

On to GUUAACGGUCAUAGGCCAUGGAAACUAGGAGCACCAUCUCGCUGCCAGUGAAGAAAUGAACAUAGAAAAUCUGGGCCGGGCAGGCAUCAAAAGAAAUAGUCUUGCGCUCAACCAGAAAGUCUGUAAUCAUUUUAAGGGUA [U38C A63U A78G], for which the self-cleavage was determined as 0.22.

For GUUAACGGUCAUAGGCCAUGGAAACUAGGAGCACCAUCUCGCUGCCAGUGAUGAAAUGAACAAAGAAAAUCCGGGCCAGGCAGGCAUCGAAAGAAAUAGUCUUGCGCUCAACCAGAAAGUCUGUAAUCAUUUUAAGGGUA [U38C A52U U72C A89G], the self-cleavage is 0.26.

Consider GUUAACGGUCAUAGGCCAUGGAAACUAGGAGCACCAUCUCGCUGCCAGUGAAGGAAUGAACAAAGAAAAUCUGGGCCAGGCAGGCACCAAAAGAAAUAGUCUUGCGCUCAACCAGAAAGUCUGUAAUCAUUUUAAGGGUA [U38C A54G U87C], for which the self-cleavage is 0.36.

For GUUAACGGUCAUAGGCCAUGGAAACUAGGAGCACCAUCUCGCUGCCAGUGAAGAAAUGAACGAAGAAAAUCUGGGCUAGGCAGGCUUCAAAAGAAAUAGUCUUGCGCUCAACCAGAAAGUCUGUAAUCAUUUUAAGGGUA [U38C A62G C77U A86U], the self-cleavage came out at 1.79.

For the variant GUUAACGGUCAUAGGCCAUGGAAACUAGGAGCACCAUCUCGCUGCCAGUGAAGAAAUGAGCAAAGAAAAUCGGGGCCAGGCAGGCAUCAAAAGAAAUAGUCUUGCGCUCAACCAGAAAGUCUGUAAUCAUUUUAAGGGUA [U38C A60G U72G], the self-cleavage is 0.18.

For the variant GUUAACGGUCAUAGGCCAUGGAAACUAGGAGCACCAUCUCGCUGCCAGUGAAGAAAUGGACGAAGAAAAUCUGGGCCAGGCAGGCAUCAAAAGAAAUAGUCUUGCGCUCAACCAGAAGGUCUGUAAUCAUUUUAAGGGUA [U38C A59G A62G A118G], the self-cleavage was determined as 0.31.

On to GUUAACGGUCAUAGGCCAUGGAAACUAGGAGCACCAUCUCGCUGCCAGUGAAGAAAUGACCAAAGAAAAUCAGGGCCAGGCAGGCAUCAAAAGAAAUAGUCUUGCGCUCAACCAGAAUGUCUGUAUUCCUUUUAAGGGUA [U38C A60C U72A A118U A126U A129C], for which the self-cleavage was 0.02.

As to GUUAACGGUCAUAGGCCAUGGAAACUAGGAGCACCAUCUCGCUGCCAGUGAAGAGAUGAACAAAGAAAAUCUGGGCCAGGCAGGCAACAAAAGAAACAGUCUUGCGCUCAACCAGAGAGUCUGUAAUCAUUUUAAGGGUA [U38C A55G U87A U97C A117G], the self-cleavage amounted to 0.3.

For the variant GUUAACGGUCAUAGGCCAUGGAAACUAGGAGCACCAUCUCGCUGCCAGUGAAGAAAUGAACGAAGCAAGUCUGGGCCGGGCAGGCAUCAAAAGAAAUGGUCUUGCGCUCAGCCAGAAAGUCUGUAAUCAUUUUAAGGGUA [U38C A62G A66C A69G A78G A98G A111G], the self-cleavage came out at 0.04.

In the case of GUUAACGGUCAUAGGCCAUGGAAACUAGGAGCACCAUCUCGCUGCCAGUGAAGGAAUGAACUAAGAAAAUCUGGGCCAGGCAGGCAUCAAAAGAAAUAGUCUUGCGCUCAGCCAGAAAGUCUGUAAUCAUUUUAAGGGUA [U38C A54G A62U A111G], the self-cleavage was determined as 0.02.

GUUAACGGUCAUAGGCCAUGGAAACUAGGAGCACCAUCUCGCUGCCAGUGAAGAAAUGAACGAAGAAAGUCUGGGCCAGGCAGGCAUCAAAAGGAAAAGUCUUGCGCUCAACCAGAAAGUCUGUAAUCAUUUUAAGGGUA [U38C A62G A69G A94G U97A]: the self-cleavage worked out at 0.7.

With GUUAACGGUCAUAGGCCAUGGAAACUAGGAGCACCAUCUCGCUGCCAGUGAAGAAAUGGACAAAGAAAAUCUGGGCCAGGCAGGCAUCAAAAGAAAUAGUCUUGCACUCAACCAGAAAGUCUGUAAUCAUUUUAAGGGUA [U38C A59G G106A], the self-cleavage was found to be 0.04.

For GUUAACGGUCAUAGGCCAUGGAAACUAGGAGCACCAUCUCGCUGCCAGUGAAGAAGUGAACAAAGAAAAUCUGGGCCAGGCAGGCGUCAAAAGAAGUAGUCUUGCGCUCAACCAGUAAGUCUGUAAUCAUUUUAAGGGUA [U38C A56G A86G A96G A116U], the self-cleavage stood at 0.19.

For GUUAACGGUCAUAGGCCAUGGAAACUAGGAGCACCAUCUCGCUGCCAGUGAAGAAAUGAACGAAGAAAAUCAGGGCCAGGCAGGCAUCAAAAGAAAUAGUCUUGCGCUCAGCCAGAAAGUCUGUAAUCAUUUUAAGGGUA [U38C A62G U72A A111G], the self-cleavage came to 0.03.

Regarding GUUAACGGUCAUAGGCCAUGGAAACUAGGAGCACCAUCUCGCUGCCAGUGAAGAAAUGAUCAAAAAAAAUCUGGGCCAGGCAGGCAUCAAAAGAAAUAGUCUUGCGCUCAACCAGAAAGUCUGUAAUCAUUUUAAGGGUA [U38C A60U G65A], the self-cleavage was 1.77.

GUUAACGGUCAUAGGCCAUGGAAACUAGGAGCACCAUCUCGCUGCCAGUGAAGAGAUGAACAAAGAAAAUCUGGGCCAGGCAGGCAUCAAAGGAAAUAGUCUUGCGCUCGACCAGGAAGUCUGUAAUCAUUUUAAGGGUA [U38C A55G A92G A110G A116G]: the self-cleavage was 0.04.

Regarding GUUAACGGUCAUAGGCCAUGGAAACUAGGAGCACCAUCUCGCUGCCAGUGAAGAAAUGAACAAAGAGAAUCUGGGCCAGGCAGGCAUCAAGAGGAAUAGUCUUGCGCUCAACCAGAAAGUCUGUAAUCAUUUUAAGGGUA [U38C A67G A91G A94G], the self-cleavage came out at 1.08.
